# Reference: US9249147B2, “Tyrosine kinase inhibitors” (CHEMBRIDGE CORPORATION, priority 2008, dated 2016)
# What was measured:
# hERG = hERG (Homo sapiens, UniProt Q12809); test: hERG Qpatch 16 automated whole-cell patch clamp in CHO-K1 (Cerep hERG Study 13292); format: cell-based; conditions: for % Inhibition of Tail current (mean): CHO-K1, automated patch clamp
# Description: The cardiac potassium channel, hERG, is responsible for the rapid delayed rectifier current (IKr) in the human ventricle. Inhibition of IKr is the most common cause of cardiac action potential prolongation by noncardiac drugs. Increased action potential duration causes prolongation of the QT interval that has been associated with a dangerous ventricular arrhythmia, torsade de pointer.
# Compound (II) was initially tested at 1 μM concentration using a standard patch clamp protocol (Cerep ADMET Study 13170). The hERG channel was expressed in a human embryonic kidney (HEK293) cell line that lacks endogenous hERG channels. […] We have retested compound (II) in hERG assay in a range of lower concentrations to estimate IC50 of hERG inhibition more precisely (Qpatch 16 automated whole-cell patch clamp protocol in CHO-K1 cell line stably expressing hERG, Cerep hERG Study 13292). […] This kind of potency in hERG inhibition should not represent a significant clinical problem since the high degree of hERG inhibition would occur only at the compound concentrations above the expected therapeutic levels.
# HepG2 = test: Cytotoxicity panel in HepG2 (Cerep ADMET study 13170); format: cell-based, human; conditions: for Intracellular Free Calcium % Effect (relative to controls), Mean: % increase
# Description: In addition to the above proliferation inhibition experiments, compound (II) was tested for cytotoxicity at Cerep (ADMET study 13170) with human hepatocellular carcinoma cell line HepG2. Several cellular parameters, such as nuclear size, mitochondrial membrane potential, intracellular free calcium, membrane permeability and cell numbers were measured during this study to evaluate cytotoxicity at 0.5, 5 and 20 μM compound concentrations.
# Raw data will be expressed as % of effect (either inhibition or increase) relative to the untreated control cells. The data will also be normalized using the reference compound (cerivastatin), whose maximum effect will be considered “100% effect.” The reference compound will also be used to define the top and bottom of the dose-response curve, if one is calculated. […] The results include the following end points:
# Nuclear Size: expressed as % inhibition relative to control values.
# Mitochondrial Membrance Potential: expressed as % inhibition relative to control values.
# Intracellular Free Calcium: expressed as % increase relative to control values.
# Membrance permeability: expressed as % increase relative to control values.
# Cell Numbers: expressed as % inhibition relative to control values.
# [1] = 2.0E−05 M, HepG2, individual replicates, listed as CRL241
# [2] = 5.0E−07 M, HepG2, individual replicates, listed as CRL241
# Chain of UniProt Q12809 (Q12809 whole entry): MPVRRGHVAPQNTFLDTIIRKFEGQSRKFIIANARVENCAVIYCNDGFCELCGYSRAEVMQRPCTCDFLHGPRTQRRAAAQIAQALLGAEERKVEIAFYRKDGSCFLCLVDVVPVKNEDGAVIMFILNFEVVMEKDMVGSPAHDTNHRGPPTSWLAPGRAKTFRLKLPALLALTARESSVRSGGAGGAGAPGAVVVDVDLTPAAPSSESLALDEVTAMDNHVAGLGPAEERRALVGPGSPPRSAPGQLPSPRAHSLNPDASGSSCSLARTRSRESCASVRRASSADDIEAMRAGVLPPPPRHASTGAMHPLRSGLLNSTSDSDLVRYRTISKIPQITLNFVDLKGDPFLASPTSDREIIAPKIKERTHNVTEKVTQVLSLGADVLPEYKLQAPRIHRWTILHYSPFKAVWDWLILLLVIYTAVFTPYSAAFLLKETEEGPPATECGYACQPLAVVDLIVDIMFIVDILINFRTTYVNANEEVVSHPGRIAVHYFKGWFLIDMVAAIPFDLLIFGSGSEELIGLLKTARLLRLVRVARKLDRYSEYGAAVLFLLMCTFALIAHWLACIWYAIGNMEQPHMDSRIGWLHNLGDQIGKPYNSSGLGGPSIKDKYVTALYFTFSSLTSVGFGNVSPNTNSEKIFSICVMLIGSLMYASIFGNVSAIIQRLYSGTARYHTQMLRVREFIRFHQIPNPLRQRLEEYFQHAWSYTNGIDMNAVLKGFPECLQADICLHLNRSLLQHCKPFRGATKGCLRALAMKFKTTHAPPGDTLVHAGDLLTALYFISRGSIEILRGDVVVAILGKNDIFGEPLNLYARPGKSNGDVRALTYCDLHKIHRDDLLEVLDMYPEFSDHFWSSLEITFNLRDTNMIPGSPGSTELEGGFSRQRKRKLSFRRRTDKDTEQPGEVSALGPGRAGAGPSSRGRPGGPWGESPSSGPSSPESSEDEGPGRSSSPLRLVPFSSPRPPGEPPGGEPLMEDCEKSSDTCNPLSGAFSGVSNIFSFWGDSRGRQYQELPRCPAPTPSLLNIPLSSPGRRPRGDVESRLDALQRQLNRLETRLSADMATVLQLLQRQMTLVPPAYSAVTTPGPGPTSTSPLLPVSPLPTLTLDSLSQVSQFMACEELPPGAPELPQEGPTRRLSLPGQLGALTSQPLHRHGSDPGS
structure (smiles),measurement,setting,value
Cc1ccc(F)cc1C[C@H](C)Nc1cc[nH]c(=O)c1-c1nc2cc3c(cc2[nH]1)C(=O)N(CCN1CCCC1)C3 [compound (II)],% Inhibition of Tail current (mean),hERG; 1.0E−07 M (100 nM),28%
same,% Inhibition of Tail current (mean),hERG; 5.0E−07 M (500 nM),38.5%
same,IC50,hERG; suggested by % inhibition values,~1000 nM
same,"Cell Number % Effect (relative to controls), Mean","HepG2; 2.0E−05 M, HepG2, 72 hours, % inhibition",68%
same,"Intracellular Free Calcium % Effect (relative to controls), Mean","HepG2; 2.0E−05 M, HepG2",−2%
same,"Cell Number % Effect (relative to controls), 1st/2nd/3rd",HepG2; [1],63.8% and 71.0% and 70.5%
same,"Intracellular Free Calcium % Effect (relative to controls), 1st/2nd/3rd",HepG2; [1],−2.2% (2×) and −2.0%
same,"Intracellular Free Calcium % Effect (relative to controls), Mean","HepG2; 5.0E−06 M, HepG2",21%
same,"Intracellular Free Calcium % Effect (relative to controls), 1st/2nd/3rd","HepG2; 5.0E−06 M, HepG2, individual replicates, listed as CRL241",20.9% and 22.1% and 21.4%
same,"Intracellular Free Calcium % Effect (relative to controls), Mean","HepG2; 5.0E−07 M, HepG2",0%
same,"Nuclear size % Effect (relative to controls), Mean","HepG2; 5.0E−07 M, HepG2, % inhibition",9%
same,"Intracellular Free Calcium % Effect (relative to controls), 1st/2nd/3rd",HepG2; [2],0.9% and −0.5% and −0.3%
same,"Nuclear size % Effect (relative to controls), 1st/2nd/3rd",HepG2; [2],14.5% and 5.5% and 6.2%

# “And” between values parts separate entries of the source, which are not always exact repeats. Equal values may be shown once.
